Test results published in the supplement of paper PMC12217912.
This is one part of the list. The full chains were built here from the parent and the listed change. Inactive controls read about 0.05.

B1: TEV protease; numbered along this chain (parent)
chain: MGESLFKGPRDYNPISSSICHLTNESDGHTTSLYGIGFGPFIITNKHLFRRNNGTLVVQSLHGVFKVKDTTTLQQHLVDGRDMIIIRMPKDFPPFPQKLKFREPQREERICLVTTNFQTKSMSSMVSDTSCTFPSGDGIFWKHWIQTKDGQCGSPLVSTRDGFIVGIHSASNFTNTNNYFTSVPKNFMELLTNQEAQQWVSGWRLNADSVLWGGHKVFMVKPEEPFQPVKEATQL

Variants of: B1
Assay: raw area under fraction-flipped curve 0-4 h after induction (AUC4h, not background-subtracted), DNA-recorder readout of cleavage of the substrate (dimensionless); higher = more cleavage of the substrate by the protease variant
Settings: temperature: 34 °C; time window: 0-4 h after rhamnose induction
Protocol: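 In vivo DNA recorder in E. coli TOP10(DE3) ΔrhaA at 34 °C. Each TEVp single-site mutant (parent TEVp 0) is paired with a single-site variant of the 7-mer TEVs (canonical ENLYFQ|S). The substrate sits between flexible linkers in a Bxb1-sfGFP-TEVs-SsrA fusion, so cleavage stabilises Bxb1 and speeds flipping of a recombination array, read by NGS. The value is the raw area under the fraction-flipped curve over 0-4 h after rhamnose induction (AUC4h), with ≥20 reads per time point. It is not background-subtracted; inactive controls average about 0.047.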
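Further: Bxb1 expression induced with 0.2% (w/v) L-rhamnose at OD600 near 0.5, cultures sampled hourly, flipped fraction per protease–substrate barcode pair counted by paired-end Illumina sequencing.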

Variant	area with substrate ENLAFQS	area with substrate ENLCFQS	area with substrate ENLDFQS	area with substrate ENLFFQS	area with substrate ENLIFQS	area with substrate ENLKFQS	area with substrate ENLLFQS	area with substrate ENLNFQS	area with substrate ENLPFQS	area with substrate ENLQFQS	area with substrate ENLRFQS	area with substrate ENLSFQS	area with substrate ENLWFQS	area with substrate ENLEFQS	area with substrate ENLGFQS	area with substrate ENLHFQS	area with substrate ENLMFQS	area with substrate ENLVFQS	area with substrate ENLTFQS
E189G	0.0586	0.0839	0.103	0.0859	0.0583	0.0723	0.0827	0.0438	0.0569	0.0586	0.0764	0.077	0.0589						
E189N	0.0543		0.0509	0.0729	0.0897	0.0841		0.0598	0.0673	0.077	0.077	0.0698	0.0497	0.062	0.0626	0.0626			
E189T	0.0635		0.065	0.112	0.0857	0.0767	0.0653	0.0584	0.0586	0.0316	0.0784	0.0513	0.0714	0.0746	0.0721	0.0605			
V157W	0.0535		0.0579	0.0787	0.0667	0.0567	0.0525	0.0528	0.1	0.0492		0.0684	0.0522			0.0661	0.0597	0.0148	
S169D	0.0758	0.0505	0.0652	0.0586		0.0618	0.05	0.0629	0.073	0.0514	0.0761	0.0694	0.0584	0.0563	0.0662			0.0538	
S169I	0.0589	0.0637	0.0659	0.0545	0.0881	0.0546	0.0544	0.0609	0.0459	0.0508	0.059	0.0532	0.0577	0.0778		0.0724	0.0633	0.0628	
F163I	0.08	0.0645	0.0724	0.0922		0.0681		0.0695			0.0699		0.0689	0.0533		0.0639		0.0694	
Y179R	0.0689		0.0688	0.0761	0.0578	0.0886	0.0642	0.0675		0.0648		0.0549		0.0651		0.0535			
Y179S	0.0561		0.0591	0.071	0.0779	0.0783			0.0552	0.0649		0.0688		0.0838		0.0552			
F187D	0.0433			0.0552	0.0673	0.0614	0.05	0.0608		0.0583				0.0546		0.0699	0.0586		0.044
F187R	0.0539	0.0463	0.0696	0.0548	0.0595	0.049	0.0524	0.0578	0.0737	0.06	0.0544			0.0585		0.0484		0.0634	
S201G	0.0653	0.0661		0.0591	0.0662	0.052	0.0622	0.068	0.0482	0.0593	0.0705	0.0623				0.0515	0.0677	0.0762	0.0647
T174K	0.0551		0.05	0.0983		0.0885		0.0604	0.0524								0.0714		
W203V	0.0619	0.055	0.0601	0.0333	0.0569	0.0622	0.079	0.0603	0.065	0.0578		0.0589	0.0544	0.0546	0.0505	0.0558		0.0732	
Q151T	0.0704	0.0511	0.0501	0.11		0.0765	0.0569	0.0634	0.0675	0.0578	0.0683	0.048		0.0391	0.0663	0.0785	0.0736		
Q151N	0.0584	0.0721	0.0633		0.0668	0.0698	0.0639	0.0647	0.0656	0.051	0.0584	0.0632	0.0952	0.0678	0.057	0.0662	0.0596		0.0614
Q151Y	0.0693	0.0585	0.0494	0.0652		0.0559		0.0696	0.0532	0.0765	0.0749	0.0585		0.0722		0.0813		0.0931	0.0817
F173H	0.0412	0.0678	0.0682	0.0715	0.0665	0.0658	0.0626	0.0632	0.0633	0.0722	0.0726	0.0523		0.0503	0.0652	0.072	0.0559	0.0597	0.0627
N177P	0.0605		0.0702	0.032			0.0658	0.066	0.067			0.0648	0.0678	0.0581		0.0668	0.0708	0.0576	0.062
N177C	0.0831		0.0555	0.122		0.137		0.0903	0.0583							0.0689	0.122	0.134	
N178A	0.0542	0.0774	0.0605		0.0678	0.0789	0.0379	0.0588	0.0449			0.0539		0.0734		0.0558			
A196D	0.0637	0.0795	0.047	0.082		0.0799	0.0818	0.0816	0.0607	0.0636	0.0693	0.0578		0.07	0.0555	0.0526			
A196F	0.0627		0.0563	0.0908	0.0948	0.0826		0.0739	0.0517	0.0675	0.07	0.0577	0.0602	0.0665		0.074	0.0795	0.101	
A196W	0.0597	0.068	0.0835	0.085	0.0569				0.0433		0.0649	0.062		0.073	0.0591				
V165P	0.0127		0.0535	0.0515	0.0522	0.061		0.07	0.0465	0.0587		0.0519	0.0349	0.0611	0.072	0.0648			
R160W	0.0633			0.0934	0.0584	0.0929			0.0923									0.0805	
